The list shows a part of the results. At the low end of the ranking, values are background and their order means little. The protein was read in a cell extract, so binding may be indirect.

The target in the assay is T1, HNF4alpha2 (COS-7 nuclear extract) (UniProt P41235).
T1 sequence: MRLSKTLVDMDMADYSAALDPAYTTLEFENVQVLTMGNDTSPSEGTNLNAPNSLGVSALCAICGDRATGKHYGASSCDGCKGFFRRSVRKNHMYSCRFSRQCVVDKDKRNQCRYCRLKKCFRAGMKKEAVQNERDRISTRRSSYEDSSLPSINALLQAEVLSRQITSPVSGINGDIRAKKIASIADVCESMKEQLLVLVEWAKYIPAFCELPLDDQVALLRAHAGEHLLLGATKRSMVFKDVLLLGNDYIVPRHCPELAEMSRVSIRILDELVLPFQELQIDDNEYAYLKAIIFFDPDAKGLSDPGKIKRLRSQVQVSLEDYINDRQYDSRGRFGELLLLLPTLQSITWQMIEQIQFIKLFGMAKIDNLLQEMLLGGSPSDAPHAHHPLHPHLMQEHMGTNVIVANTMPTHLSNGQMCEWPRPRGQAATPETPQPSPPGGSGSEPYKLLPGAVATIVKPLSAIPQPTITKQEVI
The assay can be described thus: protein-binding microarray. The note with it: COS-7 nuclear extract on double-stranded Agilent 4x180k PBM; binding buffer, salt, pH and temperature not given; high values mean tight binding; double strand, one strand shown; sequences stand for … in …GCCTAGGGAGATTAGAGTATCGGTCGA
As to TTTGAAATAGTGACCTCTGCTGGCCAGTGG, the binding signal (log2 normalized intensity) came out at 1.75.

As for AAGAGACTTTGCCCTTTTTTTCTCTCCCCT, the binding signal (log2 normalized intensity) was determined as 3.42.

For AAATAATTACTTCTTGAAGCCACTTGCTTA, the binding signal (log2 normalized intensity) is -0.981.

Consider AACTGTAGTGCATAGTGGGTTTCGGTGTCA, for which the binding signal (log2 normalized intensity) turned out to be 1.81.

TCTTCACCTGCCCTGAGTCCAGCCTTCCTG: the binding signal (log2 normalized intensity) came out at 0.422.

As for GGTGGACTGATAGGTGCGTGGGGGAGGGGC, the binding signal (log2 normalized intensity) was -1.14.

Consider TACAAAATTTACTTTAAATACACCTAACCC, for which the binding signal (log2 normalized intensity) was -1.06.

In the case of CCAGTGTGTTGTGCTGACCTCCTGTCTCAT, the binding signal (log2 normalized intensity) was 2.51.

On to CATCTGGGCAAGGTGTCAACCTTCATTCTC, for which the binding signal (log2 normalized intensity) is 1.26.

As to CCAACAAAAGAAAGCCCATTAAATCTTCCC, the binding signal (log2 normalized intensity) is -1.19.

For the sequence GTGGCCTTGCCATTGGAGGTCACCCTGTGT, the binding signal (log2 normalized intensity) amounted to 2.16.

Take GATCCCGAAAGCCGGTTCCCGCCCAAGGAG: the binding signal (log2 normalized intensity) was -1.19.

As to GAATTCCACAGCAGAAGGCAACAGCTCTGG, the binding signal (log2 normalized intensity) is -1.22.

In the case of GGGAAAACCTGACTGCGCTCCCAGAAGCCT, the binding signal (log2 normalized intensity) was -1.08.

On to TCTCCCAATCTCGAGATCATTTACATGTGT, for which the binding signal (log2 normalized intensity) was 1.91.

In the case of GTCAAAAGGGGAAATATGTAGGTTTGGGGA, the binding signal (log2 normalized intensity) was -1.18.

Take AAAGTTTGGACTAGCCACAGGGGAAACACA: the binding signal (log2 normalized intensity) is -1.19.

On to TGTTCCACAGCAAGTAAATTCCGGGGCTGG, for which the binding signal (log2 normalized intensity) is -0.993.

As to TCATAATTTTGGACTTTGTGCAAATGGAAA, the binding signal (log2 normalized intensity) was 3.85.

As for GTCAGATGACAGAATTGGTCCTGGAACTCA, the binding signal (log2 normalized intensity) was -0.0244.

Turning to TGAGGATACCAGAAATTCCATGATTTTCTG, the binding signal (log2 normalized intensity) is -1.21.

With ACTGCCTGACCCCAAGTAATAGCCGTTTCT, the binding signal (log2 normalized intensity) worked out at 1.07.

Regarding AGACACAAAAAGGCAAAGGTGTCAGGACCT, the binding signal (log2 normalized intensity) was -1.02.

Take AAGCAGCATTCCACCAAATCTTACCTAAGG: the binding signal (log2 normalized intensity) is -1.28.

On to TTCAGGGAGCGAATAAATACATAAAGTCCA, for which the binding signal (log2 normalized intensity) is 1.08.

For the sequence ACCAAACAGAGAGAAAGCAGTGACCATCCC, the binding signal (log2 normalized intensity) is -1.02.

For the sequence TTTAATTATCATCTCTGTGTATAAGACTCT, the binding signal (log2 normalized intensity) was 1.18.

GAACGGAATGTGTGATAAGGAACTGTGTAA: the binding signal (log2 normalized intensity) came to 1.15.

Take ATCAGCAAGGGCATTTGCGTAGGCTGTCAG: the binding signal (log2 normalized intensity) was found to be 0.263.

ATAGGGTTCAAACTCCTATGTGAATCTAAT: the binding signal (log2 normalized intensity) stood at 1.11.

Regarding GCAACCTTTGCTCTCCCTCCTCTCTGAGCA, the binding signal (log2 normalized intensity) was determined as 1.7.

As to GGATGGGGAGGGGGCAGGTAAGTACCAATA, the binding signal (log2 normalized intensity) was -1.1.

For CACCTCGTCCAGGTGTCTTCAGGCTGGGGC, the binding signal (log2 normalized intensity) was -0.695.

As for TTCCCTACCCCCTGGGAGTAACCTGCTTGT, the binding signal (log2 normalized intensity) was 1.83.

Turning to ATTTTCTCATCCCAGGGATAATGATAAAGA, the binding signal (log2 normalized intensity) is -0.184.

Take AGTCACACACACCTGTGTCCCCCAGGTCCA: the binding signal (log2 normalized intensity) is 3.02.

On to AAGGTAGATACTATAATTAGAATCTGCAGG, for which the binding signal (log2 normalized intensity) was -0.67.

As to TTTCTGTATCTAATCTCAGATATGCTAATT, the binding signal (log2 normalized intensity) was 0.904.

Take CTCTGCAGGAGGACTGGATCAATGGATCCA: the binding signal (log2 normalized intensity) was -1.11.

For the sequence TACCCGGCAAAGAATTGTGAGTCCAGTTGA, the binding signal (log2 normalized intensity) worked out at 0.86.

As to GGCCCCAGCAGGCCAGGCCAAATCAGAACT, the binding signal (log2 normalized intensity) is -1.16.

On to CCCGGCCAGCAGATGAGCCTGTTGGGAGCC, for which the binding signal (log2 normalized intensity) was -1.17.

ATCTTCCAGGCCTCCAGCTCTTTTGAACCC: the binding signal (log2 normalized intensity) amounted to 3.88.

In the case of GGTCAAGAGGGCCTCTGCTTGTCTTGGTTG, the binding signal (log2 normalized intensity) was determined as 0.619.

For CTCACTCTAAAGGAAGGGATTATAAAGCTT, the binding signal (log2 normalized intensity) is -1.01.

For the sequence AAGGTGAAGGAGAATATTAGATGATAAGGG, the binding signal (log2 normalized intensity) is -1.23.

As for GGCCAGTTTCTCCACAGCCTCACCAACAGG, the binding signal (log2 normalized intensity) is -1.05.

For the sequence TTCCCTGCAGAAAAGGCCCCAGGGATTGCA, the binding signal (log2 normalized intensity) was found to be 1.41.

As for CACATTCCAGAACCAAGATTTACATCCTAT, the binding signal (log2 normalized intensity) was -1.08.

With CTTTATCTAGATAAGTTTATTTACTTATGT, the binding signal (log2 normalized intensity) turned out to be 1.49.

In the case of GGCTGATGACCTTTGACTGAGATGGGAGCA, the binding signal (log2 normalized intensity) was determined as 4.03.

As to CCATTTATAAGAAACTGCTCCTGCTTGGGA, the binding signal (log2 normalized intensity) was -1.05.

Take CCAAGGAAGGGCAAACTCTAGCTGTCCTCC: the binding signal (log2 normalized intensity) was -1.08.

For the sequence TCGTCCCTTCCCTCTGTCTTCAAAACCACA, the binding signal (log2 normalized intensity) was determined as 1.63.

With AACTGATTACTGCACCCCCTTCCCACCTGC, the binding signal (log2 normalized intensity) is 5.04.

Consider CCACTAAGAAGCCCAAGGTTAAAATCACAA, for which the binding signal (log2 normalized intensity) is -1.05.

As for AGCCGGCTCAAAATAGGCAAGACTGCCACC, the binding signal (log2 normalized intensity) is -1.17.

Turning to CCTTGACCCTTCCTCCCATTTGCTGCTCTA, the binding signal (log2 normalized intensity) was found to be 2.08.

On to CTTGCAGGGGGCCTCCTGCCCCAGGAGCAG, for which the binding signal (log2 normalized intensity) is -1.19.

With TCCTGGAACTCTGACCTTTGCCCCCAGCCT, the binding signal (log2 normalized intensity) came to 9.67.

Regarding CACCTACTTGGGATGCTGAGGTGGGAGGAT, the binding signal (log2 normalized intensity) was -0.924.

With CAGGTATTTGGACTTTTTGTAGTTTCAGCT, the binding signal (log2 normalized intensity) came to 1.12.

Regarding GGGTCAAGAAGCTCTGGCGCCATCTGGTTT, the binding signal (log2 normalized intensity) was -1.1.

As for ATAGAGAAGTTTTGAAACCCTGTTCTTGTA, the binding signal (log2 normalized intensity) worked out at 0.729.

On to TCTTAACATCAGAAGTTGGACTTTGTACAT, for which the binding signal (log2 normalized intensity) stood at 9.62.

For the sequence GATCTCAGGGTGGACTTTAAACATTCCCAC, the binding signal (log2 normalized intensity) worked out at 4.53.

Consider CTCCTGGCAGAGCATAGAAGTAAGAAATCA, for which the binding signal (log2 normalized intensity) was -0.894.

Take AATCGCCTGATTGGTCATACTTGACCCACA: the binding signal (log2 normalized intensity) came out at 2.53.

In the case of TGGTTGGATTTCTTGGCTTCTCTTGGACCT, the binding signal (log2 normalized intensity) came out at 3.15.

On to CGGTCTGCCCTCTTGTCCTTCCCCTTTTGT, for which the binding signal (log2 normalized intensity) amounted to 3.18.

As to TGAACTTTGAACACCTCTTCTTTCTTCTCT, the binding signal (log2 normalized intensity) was 3.92.

With GAGAGGCTGCTCAGTTTAAGTCAAAATATA, the binding signal (log2 normalized intensity) was -1.16.

The values are drawn from publication PMC10726135.
